# Measured values as given in the supplement of paper PMC12217912.
# Some of the results follow. Sequences were assembled here from the parent chain. Inactive controls read about 0.05.
# B1: TEV protease; numbered along this chain (parent)
# chain: MGESLFKGPRDYNPISSSICHLTNESDGHTTSLYGIGFGPFIITNKHLFRRNNGTLVVQSLHGVFKVKDTTTLQQHLVDGRDMIIIRMPKDFPPFPQKLKFREPQREERICLVTTNFQTKSMSSMVSDTSCTFPSGDGIFWKHWIQTKDGQCGSPLVSTRDGFIVGIHSASNFTNTNNYFTSVPKNFMELLTNQEAQQWVSGWRLNADSVLWGGHKVFMVKPEEPFQPVKEATQL
# Variants of: B1
# Assay: raw area under fraction-flipped curve 0-4 h after induction (AUC4h, not background-subtracted), DNA-recorder readout of cleavage of the substrate (dimensionless); higher = more cleavage of the substrate by the protease variant
# Conditions: temperature: 34 °C; time window: 0-4 h after rhamnose induction
# Protocol: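 In vivo DNA recorder in E. coli TOP10(DE3) ΔrhaA at 34 °C. Each TEVp single-site mutant (parent TEVp 0) is paired with a single-site variant of the 7-mer TEVs (canonical ENLYFQ|S). The substrate sits between flexible linkers in a Bxb1-sfGFP-TEVs-SsrA fusion, so cleavage stabilises Bxb1 and speeds flipping of a recombination array, read by NGS. The value is the raw area under the fraction-flipped curve over 0-4 h after rhamnose induction (AUC4h), with ≥20 reads per time point. It is not background-subtracted; inactive controls average about 0.047.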
# 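Also: Bxb1 expression induced with 0.2% (w/v) L-rhamnose at OD600 near 0.5, cultures sampled hourly, flipped fraction per protease–substrate barcode pair counted by paired-end Illumina sequencing.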
Variant,area with substrate ENLYAQS,area with substrate ENLYDQS,area with substrate ENLYHQS,area with substrate ENLYIQS,area with substrate ENLYKQS,area with substrate ENLYPQS,area with substrate ENLYRQS,area with substrate ENLYTQS,area with substrate ENLYWQS,area with substrate ENLYYQS,area with substrate ENLYEQS,area with substrate ENLYGQS,area with substrate ENLYLQS,area with substrate ENLYMQS,area with substrate ENLYNQS,area with substrate ENLYQQS,area with substrate ENLYCQS,area with substrate ENLYVQS,area with substrate ENLYSQS
V58F,0.0493,0.0607,0.0655,0.111,0.0671,0.0469,0.0396,0.0634,0.0843,0.0539,,,,,,,,,
V229G,0.0771,0.0715,,0.113,0.0056,0.0955,,,0.101,,0.0655,0.067,0.171,0.0836,0.0723,0.0738,,,
I167S,0.0756,0.0557,0.0622,0.0812,0.0495,0.0694,,,0.0781,,0.0534,0.0551,0.0498,0.061,0.0463,0.063,0.0952,0.105,
T192A,0.0751,0.0508,0.0702,0.131,0.0554,0.0554,0.0603,,0.0654,,0.0673,0.0639,,0.0665,0.0669,,,0.107,0.062
S4W,0.0712,0.0706,0.0601,0.105,0.0304,0.0705,0.0707,0.0629,0.0757,0.0661,0.0447,0.0732,0.0671,0.0833,0.0818,,0.0849,0.0812,0.0631
S135P,0.0651,,0.0595,,0.0617,0.0618,0.0604,,0.0545,0.0583,0.0686,0.0602,,,0.0597,,,0.0775,0.0564
M125R,0.0922,0.0744,0.0705,0.113,0.0258,0.0704,0.0551,0.0792,0.0866,0.0681,0.0736,0.0788,0.0839,0.0748,0.0596,0.064,,0.115,0.0836
G153P,0.0505,0.0584,0.0386,0.0351,0.0135,,,,0.0531,,0.053,0.0523,,0.0487,0.0468,0.091,,0.0493,
L112R,0.0977,0.0547,0.0554,0.107,0.0223,0.0677,0.064,0.0897,0.11,0.0544,0.0524,0.0695,,0.0829,,,0.0743,0.0674,
E223H,0.0644,,,,0.0518,0.0708,0.0675,0.0705,,0.0972,0.069,0.0635,0.0778,0.0824,0.0649,0.0648,,,0.0626
S124T,0.067,,0.0594,0.143,0.0258,,0.0804,,0.0775,0.0467,,0.104,,,0.0558,0.0635,,0.101,0.0739
E189M,0.0611,0.0875,0.0694,0.131,0.0634,0.0689,0.0664,0.0806,0.0737,0.055,0.0573,0.0598,,0.0765,0.0655,0.0643,0.0512,0.0857,0.0728
D137Y,0.0761,0.0626,0.0651,,,,0.0651,0.0733,,,0.0535,0.0616,,,0.0721,0.0565,,,
